Data: the supplement of paper PMC8728848
The list shows a part of the results.

Key:
Assay in all cases: glycan array binding signal (z-score within array); higher = stronger binding
Settings in all cases: glycan notation: IUPAC condensed, linker removed
[1] = biological target: Neu5Ac(a2-3)Gal(b1-4)GlcNAc(b1-6)[Gal(b1-3)]GalNAc
How it was run: (§1)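 The binding signal is a Z-score computed within each array. Data were drawn from 3228 arrays in the Consortium for Functional Glycomics database, restricted to those with a known protein sequence. Scores were averaged over arrays of the same protein sequence at different concentrations or buffers, and over linkers, and negative values can be taken as non-binding.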

[2] = biological target: Neu5Ac(a2-3)Gal(b1-4)GlcNAc(b1-6)[Neu5Ac(a2-3)Gal(b1-3)]GalNAc
How it was run: as §1

[3] = biological target: Neu5Ac(a2-3)Gal(b1-4)GlcNAc6S
How it was run: as §1

[4] = biological target: Neu5Ac(a2-3)Gal(b1-4)[Fuc(a1-3)]GlcNAc
How it was run: as §1

[5] = biological target: Neu5Ac(a2-3)Gal(b1-4)[Fuc(a1-3)]GlcNAc(b1-2)Man
How it was run: as §1

[6] = biological target: Neu5Ac(a2-3)Gal(b1-4)[Fuc(a1-3)]GlcNAc(b1-3)Gal
How it was run: as §1

[7] = biological target: Neu5Ac(a2-3)Gal(b1-4)[Fuc(a1-3)]GlcNAc(b1-3)Gal(b1-4)GlcNAc
How it was run: as §1

[8] = biological target: Neu5Ac(a2-3)Gal(b1-4)[Fuc(a1-3)]GlcNAc(b1-3)Gal(b1-4)[Fuc(a1-3)]GlcNAc(b1-3)Gal(b1-4)[Fuc(a1-3)]GlcNAc
How it was run: as §1

[9] = biological target: Neu5Ac(a2-3)Gal(b1-4)[Fuc(a1-3)]GlcNAc(b1-3)GalNAc
How it was run: as §1

[10] = biological target: Neu5Ac(a2-3)Gal(b1-4)[Fuc(a1-3)]GlcNAc(b1-6)[Gal(b1-3)]GalNAc
How it was run: as §1

[11] = biological target: Neu5Ac(a2-3)Gal(b1-4)[Fuc(a1-3)]GlcNAc(b1-6)[Neu5Ac(a2-3)Gal(b1-3)]GalNAc
How it was run: as §1

[12] = biological target: Neu5Ac(a2-3)Gal(b1-4)[Fuc(a1-3)]GlcNAc6S
How it was run: as §1

[13] = biological target: Neu5Ac(a2-3)Gal6S(b1-4)GlcNAc
How it was run: as §1

[14] = biological target: Neu5Ac(a2-3)Gal6S(b1-4)[Fuc(a1-3)]GlcNAc
How it was run: as §1

Neu5Ac(a2-3)GalNAc = biological target: Neu5Ac(a2-3)GalNAc
How it was run: as §1

[15] = biological target: Neu5Ac(a2-3)GalNAc(b1-4)GlcNAc
How it was run: as §1

[16] = biological target: Neu5Ac(a2-3)[GalNAc(b1-4)]Gal(b1-4)Glc
How it was run: as §1

[17] = biological target: Neu5Ac(a2-3)[GalNAc(b1-4)]Gal(b1-4)GlcNAc
How it was run: as §1

[18] = biological target: Neu5Ac(a2-3)[GalNAc(b1-4)]Gal(b1-4)GlcNAc(b1-3)GalNAc
How it was run: as §1

[19] = biological target: Neu5Ac(a2-3)[Neu5Ac(a2-6)]GalNAc
How it was run: as §1

Neu5Ac(a2-6)Gal = biological target: Neu5Ac(a2-6)Gal
How it was run: as §1

[20] = biological target: Neu5Ac(a2-6)Gal(b1-3)GlcNAc(b1-3)[Gal(b1-4)GlcNAc(b1-6)]Gal(b1-4)Glc
How it was run: as §1

Neu5Ac(a2-6)Gal(b1-4)Glc = biological target: Neu5Ac(a2-6)Gal(b1-4)Glc
How it was run: as §1

[21] = biological target: Neu5Ac(a2-6)Gal(b1-4)GlcNAc
How it was run: as §1

[22] = biological target: Neu5Ac(a2-6)Gal(b1-4)GlcNAc(b1-2)Man
How it was run: as §1

[23] = biological target: Neu5Ac(a2-6)Gal(b1-4)GlcNAc(b1-2)Man(a1-3)Man(b1-4)GlcNAc(b1-4)GlcNAc
How it was run: as §1

[24] = biological target: Neu5Ac(a2-6)Gal(b1-4)GlcNAc(b1-2)Man(a1-3)[Gal(b1-4)GlcNAc(b1-2)Man(a1-6)]Man(b1-4)GlcNAc(b1-4)GlcNAc
How it was run: as §1

[25] = biological target: Neu5Ac(a2-6)Gal(b1-4)GlcNAc(b1-2)Man(a1-3)[GlcNAc(b1-2)Man(a1-6)]Man(b1-4)GlcNAc(b1-4)GlcNAc
How it was run: as §1

[26] = biological target: Neu5Ac(a2-6)Gal(b1-4)GlcNAc(b1-2)Man(a1-3)[GlcNAc(b1-4)][Neu5Ac(a2-6)Gal(b1-4)GlcNAc(b1-2)Man(a1-6)]Man(b1-4)GlcNAc(b1-4)GlcNAc
How it was run: as §1

[27] = biological target: Neu5Ac(a2-6)Gal(b1-4)GlcNAc(b1-2)Man(a1-3)[Man(a1-6)]Man(b1-4)GlcNAc(b1-4)GlcNAc
How it was run: as §1

[28] = biological target: Neu5Ac(a2-6)Gal(b1-4)GlcNAc(b1-2)Man(a1-3)[Neu5Ac(a2-3)Gal(b1-4)GlcNAc(b1-2)Man(a1-6)]Man(b1-4)GlcNAc(b1-4)GlcNAc
How it was run: as §1

[29] = biological target: Neu5Ac(a2-6)Gal(b1-4)GlcNAc(b1-2)Man(a1-3)[Neu5Ac(a2-6)Gal(b1-4)GlcNAc(b1-2)Man(a1-6)]Man(b1-4)GlcNAc(b1-4)GlcNAc
How it was run: as §1

[30] = biological target: Neu5Ac(a2-6)Gal(b1-4)GlcNAc(b1-2)Man(a1-3)[Neu5Ac(a2-6)Gal(b1-4)GlcNAc(b1-2)Man(a1-6)]Man(b1-4)GlcNAc(b1-4)[Fuc(a1-6)]GlcNAc
How it was run: as §1

[31] = biological target: Neu5Ac(a2-6)Gal(b1-4)GlcNAc(b1-2)Man(a1-6)Man(b1-4)GlcNAc(b1-4)GlcNAc
How it was run: as §1

[32] = biological target: Neu5Ac(a2-6)Gal(b1-4)GlcNAc(b1-2)Man(a1-6)[Gal(b1-4)GlcNAc(b1-2)Man(a1-3)]Man(b1-4)GlcNAc(b1-4)GlcNAc
How it was run: as §1

[33] = biological target: Neu5Ac(a2-6)Gal(b1-4)GlcNAc(b1-2)Man(a1-6)[GlcNAc(b1-2)Man(a1-3)]Man(b1-4)GlcNAc(b1-4)GlcNAc
How it was run: as §1

[34] = biological target: Neu5Ac(a2-6)Gal(b1-4)GlcNAc(b1-2)Man(a1-6)[Man(a1-3)]Man(b1-4)GlcNAc(b1-4)GlcNAc
How it was run: as §1

[35] = biological target: Neu5Ac(a2-6)Gal(b1-4)GlcNAc(b1-2)[Neu5Ac(a2-6)Gal(b1-4)GlcNAc(b1-4)]Man(a1-3)[GlcNAc(b1-4)][Neu5Ac(a2-6)Gal(b1-4)GlcNAc(b1-2)[Neu5Ac(a2-6)Gal(b1-4)GlcNAc(b1-6)]Man(a1-6)]Man(b1-4)GlcNAc(b1-4)GlcNAc
How it was run: as §1

[36] = biological target: Neu5Ac(a2-6)Gal(b1-4)GlcNAc(b1-2)[Neu5Ac(a2-6)Gal(b1-4)GlcNAc(b1-4)]Man(a1-3)[GlcNAc(b1-4)][Neu5Ac(a2-6)Gal(b1-4)GlcNAc(b1-4)Man(a1-6)]Man(b1-4)GlcNAc(b1-4)GlcNAc
How it was run: as §1

[37] = biological target: Neu5Ac(a2-6)Gal(b1-4)GlcNAc(b1-2)[Neu5Ac(a2-6)Gal(b1-4)GlcNAc(b1-6)]Man(a1-6)[Neu5Ac(a2-6)Gal(b1-4)GlcNAc(b1-2)Man(a1-3)][GlcNAc(b1-4)]Man(b1-4)GlcNAc(b1-4)GlcNAc
How it was run: as §1

[38] = biological target: Neu5Ac(a2-6)Gal(b1-4)GlcNAc(b1-3)Gal(b1-3)GlcNAc
How it was run: as §1

[39] = biological target: Neu5Ac(a2-6)Gal(b1-4)GlcNAc(b1-3)Gal(b1-4)GlcNAc
How it was run: as §1

[40] = biological target: Neu5Ac(a2-6)Gal(b1-4)GlcNAc(b1-3)Gal(b1-4)GlcNAc(b1-2)Man(a1-3)[Neu5Ac(a2-6)Gal(b1-4)GlcNAc(b1-3)Gal(b1-4)GlcNAc(b1-2)Man(a1-6)]GalNAc
How it was run: as §1

[41] = biological target: Neu5Ac(a2-6)Gal(b1-4)GlcNAc(b1-3)Gal(b1-4)GlcNAc(b1-3)Gal(b1-4)GlcNAc
How it was run: as §1

[42] = biological target: Neu5Ac(a2-6)Gal(b1-4)GlcNAc(b1-3)Gal(b1-4)GlcNAc(b1-3)Gal(b1-4)GlcNAc(b1-2)Man(a1-3)[Neu5Ac(a2-6)Gal(b1-4)GlcNAc(b1-3)Gal(b1-4)GlcNAc(b1-3)Gal(b1-4)GlcNAc(b1-2)Man(a1-6)]GalNAc
How it was run: as §1

B1: Pbx1 (Cryptococcus neoformans) (protein)
chain: ATTKCLVSGDQDSINNALALGGEGTTVTLCPGSVHRLNSSIIFTAPSQTLTTLGNPKDRNRAMLVVDGEDLACAIRADCKQCSHAMIRSLVIDGNRPQLLRIPKGDALIEVGNAESQTVRDCKLYEPRGWSALHFREGDERQCRFGHIVDNEIGPCGEEWDDEYDSMDETKPLWGNPRADGISLACKDSIVERNVVYDATDGAIVLFGSAGSTVKNNHVYARTRVILGGINLVDYEPWDGDYTNVKVHHNHLYALGRYFKVGIVIGPASWSDDTESVVHSASVTDNEFSGGYWGYGIVVASAKNFEVLRNKVIWDGEQGVARFSGVPGSRCPKAPENGKPTAFLINRGSAKGIFQDDFVNGEVQHIICLNPDQDPPYKPWRFRDSPEAIAAKQAENPTANSAFDSRIAEALVSYQMSLLNSMDAMTQKVEHLTNPIVDDALPFVHEHERAEADKKARQEASRKEKESGNKDVDMLNVKVEELEKSGRRLKKALDGLKSDFEGLSGRLKKSADENKPIIETIFVTSQNLLLGATSQQN
- glycan array binding signal (z-score) [1]: -0.318
- glycan array binding signal (z-score) [2]: 0.206
- glycan array binding signal (z-score) [3]: -0.551
- glycan array binding signal (z-score) [4]: -0.072
- glycan array binding signal (z-score) [5]: 0.371
- glycan array binding signal (z-score) [6]: -0.349
- glycan array binding signal (z-score) [7]: 0.071
- glycan array binding signal (z-score) [8]: -0.497
- glycan array binding signal (z-score) [9]: 2.16
- glycan array binding signal (z-score) [10]: 3.7
- glycan array binding signal (z-score) [11]: 0.371
- glycan array binding signal (z-score) [12]: -0.255
- glycan array binding signal (z-score) [13]: 0.775
- glycan array binding signal (z-score) [14]: -1.04
- glycan array binding signal (z-score) (Neu5Ac(a2-3)GalNAc): -0.361
- glycan array binding signal (z-score) [15]: -1.27
- glycan array binding signal (z-score) [16]: -0.399
- glycan array binding signal (z-score) [17]: -0.475
- glycan array binding signal (z-score) [18]: 0.696
- glycan array binding signal (z-score) [19]: -0.513
- glycan array binding signal (z-score) (Neu5Ac(a2-6)Gal): -0.433
- glycan array binding signal (z-score) [20]: 0.509
- glycan array binding signal (z-score) (Neu5Ac(a2-6)Gal(b1-4)Glc): 0.183
- glycan array binding signal (z-score) [21]: -0.519
- glycan array binding signal (z-score) [22]: -0.089
- glycan array binding signal (z-score) [23]: -0.15
- glycan array binding signal (z-score) [24]: -0.304
- glycan array binding signal (z-score) [25]: -0.681
- glycan array binding signal (z-score) [26]: -0.499
- glycan array binding signal (z-score) [27]: 0.004
- glycan array binding signal (z-score) [28]: -0.208
- glycan array binding signal (z-score) [29]: -0.135
- glycan array binding signal (z-score) [30]: 0.568
- glycan array binding signal (z-score) [31]: 0.033
- glycan array binding signal (z-score) [32]: 0.095
- glycan array binding signal (z-score) [33]: -0.525
- glycan array binding signal (z-score) [34]: 0.813
- glycan array binding signal (z-score) [35]: 2.36
- glycan array binding signal (z-score) [36]: 0.02
- glycan array binding signal (z-score) [37]: -0.36
- glycan array binding signal (z-score) [38]: -0.123
- glycan array binding signal (z-score) [39]: -0.807
- glycan array binding signal (z-score) [40]: 0.513
- glycan array binding signal (z-score) [41]: 0.314
- glycan array binding signal (z-score) [42]: 0.93
